In the supplement of paper PMC3334620:
The full ranking holds about 33,000 sequences; the median of “E-score (-0.5 to 0.5)” is about -0.011, and the highest 2% start at about 0.28. The list shows a part of the results.

Each sequence was assayed against T1, Gcr1 (UniProt P07261) (assay: PBM E-score (8-mer binding enrichment) (E-score (-0.5 to 0.5)); higher = stronger / more preferred TF binding; most listed sequences are background and not binding sites). Details: protein concentration: 100 nM; construct: GST-full length.
T1 sequence: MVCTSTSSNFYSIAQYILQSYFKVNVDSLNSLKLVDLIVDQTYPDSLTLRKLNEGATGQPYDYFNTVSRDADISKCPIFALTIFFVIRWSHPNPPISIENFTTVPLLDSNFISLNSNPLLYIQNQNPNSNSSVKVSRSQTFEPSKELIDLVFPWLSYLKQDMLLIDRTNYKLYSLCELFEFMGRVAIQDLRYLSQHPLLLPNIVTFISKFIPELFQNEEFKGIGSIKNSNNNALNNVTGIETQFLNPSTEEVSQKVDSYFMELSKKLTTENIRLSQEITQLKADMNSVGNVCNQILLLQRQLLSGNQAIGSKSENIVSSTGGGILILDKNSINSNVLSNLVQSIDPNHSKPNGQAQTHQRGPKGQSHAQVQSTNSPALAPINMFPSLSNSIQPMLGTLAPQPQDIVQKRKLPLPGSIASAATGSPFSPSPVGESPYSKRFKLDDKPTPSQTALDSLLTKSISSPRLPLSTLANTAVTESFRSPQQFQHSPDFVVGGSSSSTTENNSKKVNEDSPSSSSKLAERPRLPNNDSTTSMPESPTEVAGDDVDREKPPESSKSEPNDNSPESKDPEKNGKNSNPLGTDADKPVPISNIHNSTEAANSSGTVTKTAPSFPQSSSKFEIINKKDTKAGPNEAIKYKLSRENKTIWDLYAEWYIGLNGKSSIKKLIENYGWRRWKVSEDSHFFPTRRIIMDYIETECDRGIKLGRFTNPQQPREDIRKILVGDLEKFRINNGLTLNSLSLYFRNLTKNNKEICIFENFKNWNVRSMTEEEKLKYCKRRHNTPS
Outline: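 The E-score, a modified Wilcoxon-Mann-Whitney statistic, was computed by the Universal PBM Analysis Suite for every ungapped eight-base word pooled with its reverse complement. Scans behind it were normalised with masliner after bound GST-tagged yeast transcription factors were detected with fluorescent anti-GST. The proteins, at about 100-200 nM, had been applied to universal all-10-mer Agilent arrays made double-stranded by primer extension.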

Sequence	PBM E-score
CAGAGCAA	0.0409
CCGGAACC	0.325
ATAGGTGA	0.0207
CTACTCGC	-0.0521
TGCTGCAA	0.209
CCGACCAG	-0.107
ATCCCCGC	0.244
AAGCCAGG	-0.216
GATTATAC	-0.0491
GCCCATAC	-0.0322
AAATCTAT	0.233
CTGTGATC	-0.0288
ACCGGAAA	0.177
GGATTTAA	0.0302
TCCCCCAA	-0.0523
TGGCGGAA	0.0594
CATACGTC	0.018
GTCTTAAA	0.0994
ACCGCGCC	-0.0703
CACGAAAG	-0.159
AGTGAACC	-0.127
TATAGCAA	-0.0222
CAGAAGTC	0.133
CTTTAATC	0.0588
CAAGGGAA	-0.175

Sequence	PBM E-score
GACTGTCA	-0.154
GACACCAA	0.0543
CTGTCCCC	-0.063
ACCGGCCT	-0.153
AACCTTGA	-0.0838
CGCCGGAA	0.195
CAGCCAGC	-0.158
ATAAGACC	-0.0977
GGCGTCCC	0.362
ATAATCTA	0.0161
CGCCCTAA	0.189
ATGGTACG	-0.0261
GGTCTCAC	-0.209
CCCACGGA	-0.0507
AGATTAAT	0.0373
AAGGGTGT	-0.0439
TAGAGCTA	-0.222
AACGAGAG	-0.143
CTTTGTTC	-0.0308
AATACGGA	0.143
GGCGCCTA	0.385
CGAACTTC	0.136
CAAAGCGA	0.206
CCTTGCTC	-0.14
CATGATAG	0.00598

Sequence	PBM E-score
AATTCGTG	0.135
ATGCACAC	-0.234
CGATGTAC	-0.123
CCGTTCCG	-0.159
ACAAGCAA	-0.121
AAGGACGG	-0.211
CAGCCTGC	-0.276
CTAAGCGC	-0.0177
GTCTGAAA	0.103
AACCGTAA	0.0496
CAGATTAA	0.156
GAATAATC	0.139
CTCGGACC	-0.0591
GTCTACAA	-0.0669
AGACCCAG	-0.106
ACCCGCCA	-0.131
AGCTGCCG	0.289
ACCCCAGA	-0.0029
CTAACAAC	0.00805
GACTAAAA	0.0645
AACTTACC	-0.0965
ACGTATAG	-0.0327
ATGCGCAG	-0.0831
ATAGGATA	-0.0284
AGTCCCTA	-0.106

Sequence	PBM E-score
GGGTCAAA	-0.121
GTTTCCAA	0.11
CCAAACCC	-0.071
AACAGGCC	-0.0784
ATGTAATG	0.164
TTCAGAAA	0.12
CAAGCCTC	-0.0336
GGAGCAAA	-0.0648
CGGGGCGC	0.0571
ACGGCGGG	-0.0383
TAAAATCA	-0.196
CGACCGCC	-0.24
CGGGCACA	-0.0928
GCCGATAA	-0.197
CTCCAGGA	0.127
AACATGTT	0.106
CACGGAGA	-0.141
CGAATATA	0.00705
CGATCAGA	-0.117
AGTACTTG	-0.0446
TAATTGGA	0.206
AAGTTTCG	0.126
AAGTGATA	-0.0979
ACCTCAAT	0.092
GTCTGATA	0.0529

Sequence	PBM E-score
AGAAACCG	0.179
GCAGGGGC	-0.0501
CCCGACTA	0.0255
CGGATAAA	0.195
CGCTCTAC	-0.0891
ACTTTACA	0.0425
TATTGGAA	0.288
AGGCTCGG	-0.187
CAGCGCAC	-0.12
ATTGCCGG	-0.181
CTAAGGGC	0.0547
AGAGTGCC	-0.0496
GCAATTTA	0.189
CGGCGGAG	0.098
ATTTGACA	0.00188
CCATCCGA	-0.0665
ATAATCAA	0.0908
GTCTAATA	-0.021
TCGGGAAA	-0.0473
TATGATAA	-0.0065
AAACGCAT	-0.0338
ATGCGGCA	0.0412
CTCAGGGA	-0.0765
GCCAATCC	0.0418
CTCGACGA	-0.167

Sequence	PBM E-score
CCTGCTCG	-0.222
AAAGTAGA	0.194
GATCGCTA	-0.112
GCACTGGA	0.218
GTTGTGCA	-0.123
GTTTTTGA	0.0476
ACCCAATG	0.0138
ACGGCATC	0.2
ATGTACTC	-0.05
AACTTCGT	0.173
CCCACCCG	0.172
ACCTTATC	-0.161
GCCTTCTA	0.131
AGCCTCAA	0.0109
CCGGTGGC	0.0376
AAGACGGT	-0.187
CTCCGCTC	-0.148
ACACGGCA	-0.081
ATGCTTCC	0.0851
ATTACCCG	-0.00703
AAGGAATC	0.26
GTTAGCGA	-0.125
ACAGGCAG	0.252
ACACCTGA	-0.181
AAAGTCTG	-0.0992

Sequence	PBM E-score
CTCCGGTA	0.018
CATCAATG	0.0391
CTGTTCAC	-0.0145
CACTGACA	0.101
TCAGCTCA	-0.194
GCGCAGGA	-0.203
AATACCCT	-0.0814
CATACGAG	-0.0234
CTTCTATA	0.187
CCTTACCC	-0.292
AGTGAGGA	0.0864
AAAAGCCC	-0.194
GGGTTCTA	0.0354
AAAGCTTG	-0.281
TCCCCACA	-0.00673
GCAAAGTA	0.0465
AACCTGGG	-0.173
TTAACTAA	0.0488
AAGGTTGT	0.0394
CCCGCACA	0.00198
GCTTCCAA	0.443
AGCGGCGA	0.0745
GCTTTGCC	-0.214
AGTCAATA	-0.0401
AAATTCTA	-0.0194

Sequence	PBM E-score
ACGGATCA	-0.0362
CCGGTATA	0.191
TGCAAGCA	-0.227
CGTCATTC	-0.0627
AGTCGTCG	-0.091
AGATGATC	0.107
GTCTGCGA	-0.0873
CCATAGGG	-0.1
CTAAGTGC	-0.0458
ACTGCCCA	-0.083
CGTGAAAG	0.17
ATGCGCAA	0.0266
ATTATCCC	-0.152
ACCAGCTA	0.00494
AGAGGGTG	0.196
GCCGCGTA	0.143
AACTGGTC	0.0802
AGTAGGCC	-0.0485
CTAGCGGC	-0.0817
GTAGCTAA	-0.0197
CAGGCAGA	-0.0141
CATGCCTC	-0.101
AGCCTTCG	-0.213
CATGCTCA	-0.194
AAGCCTAT	0.114

Sequence	PBM E-score
GAAGCGAC	-0.0968
ATCGTGGA	0.148
CGAGGATA	0.0495
CAACCACG	-0.048
GGTTATAA	-0.0273
CTATGCCA	-0.0421
GCTAAACA	0.0775
CTGCAGGC	-0.0688
AAAGGCGT	0.0874
GCCTCAAA	-0.0306
AACCAAGG	-0.00121
AATGGGGT	0.0769
CTGGAGCC	0.235
ACCCCGGT	-0.185
ATCCTAGG	0.0587
CCTACAGA	-0.15
AGCGAGAT	-0.00699
CGAGCACG	-0.175
GCAAACCA	-0.0205
CTTAAGGC	-0.071
ATCGCTTC	-0.0186
GCCGAGGC	-0.181
ATTTGGGC	0.103
CGTAGTTC	-0.0582
GGTTAAAC	-0.0126

Sequence	PBM E-score
ATCGTGCC	0.0295
TCCAACCA	0.155
ATCTAGGG	-0.0438
GAGTGAAA	-0.135
GACGTCTC	-0.0327
ATTTAGGC	0.0811
ACCAAAAA	0.205
AGCACACC	-0.188
AACCAAAC	0.0542
AGGCTCCC	0.24
CAGATCTC	-0.0934
CCTTGCAC	0.0164
CTGAGCAA	-0.0295
CTGAAAAG	0.119
CAGGACCA	-0.17
ATCCATGA	-0.00466
CCGTGGCC	-0.227
AGCCGAAG	-0.0728
GAGCGTAC	-0.0546
ATTGCCAC	-0.129
AGCGATTA	0.0479
GAACGTTC	-0.127
TGCCTCAA	0.00217
AGACTCCC	-0.0302
CCCTTCGG	0.119

Sequence	PBM E-score
AAGGCTCG	-0.219
CAACCTGC	-0.133
ACTACCGC	-0.0353
ACCGCGGC	0.143
TCACGAAA	-0.0274
ATCTAGGC	0.0228
CGCCGGCC	-0.207
ACGCTTCG	-0.0461
AGACTCCT	0.147
CACTCCAC	0.0894
GCAGTAGA	0.0267
CTGTGTCA	0.0406
AGATGCCC	0.108
AAGCAAAG	-0.0788
CGTCTTTC	-0.00721
CGACGAAC	-0.0871
ACTTTCTG	-0.176
CGCTTATA	-0.0849
CACCTCTG	0.108
ACGACCCT	-0.155
AGGTGGTA	0.0389
GCGAATGA	0.0568
ACGTTTCT	-0.0839
AATCCAAC	0.112
CTCTCCAC	-0.136

Sequence	PBM E-score
CGCGATCA	-0.0515
CCTATTAC	0.132
CGATTGTA	0.0357
ATTGCCTC	-0.243
CAAGGGTA	-0.122
CATACACC	0.0242
TATGTTCA	-0.0466
AGGCTGCC	0.382
AACGTTGA	-0.239
TGCACCAA	-0.133
AACACACG	0.106
GCAAGGCA	-0.25
GGAAACAC	0.168
ACGTGGCT	0.0763
AGAGTTGC	-0.0857
GAAAACTA	0.0352
ATATGGCC	-0.0751
AGCTAAAT	0.0641
CGGAGAGC	-0.0626
CGGGCGTC	0.307
CTCGATTA	0.151
ACATTGTA	0.036
GGCCACAC	0.0378
TCGTTGCA	-0.108
CACAGGCG	-0.00662

Sequence	PBM E-score
AAGCCAAT	0.0759
TAACAAAA	0.063
GCAGATGC	-0.0735
GTCCGCCA	-0.0551
TTGCTAAA	-0.164
AATGCTTG	-0.143
AGCAGTTG	-0.00851
AAACGTGA	-0.0568
GCTCCCAA	0.0938
ACTGGTAA	0.0902
GCTCGCCA	-0.0132
CATTTCAG	-0.0103
GCCGCAGA	-0.0297
GATACGAA	0.156
ACAGTACG	-0.074
ACCCGGCA	0.125
GACGCCGC	0.37
CCGCAATA	0.00375
CAACAAAG	-0.114
ACTCTATC	-0.12
GGTGCTTA	0.259
ATACGTTC	-0.246
CAAATCGA	-0.0882
AAGGTGGC	-0.0205
CTATGAAG	-0.0783

Sequence	PBM E-score
GCGTGAAC	0.00311
CGTACGAG	-0.103
CGTTTGAA	-0.0917
ATCGGGCG	0.0155
CGATGAGC	-0.248
AATAGTAC	-0.149
ATGCGCAT	-0.0285
CGGCGCAC	-0.178
CCGAATGA	-0.0709
AGCCTCAC	0.0143
ACGGGGGG	-0.182
AATATTCC	0.131
AATGAACC	-0.134
ACCACCGT	-0.0184
ATCTCCTC	0.0889
CTACGCTC	-0.213
AGTAGGGA	0.123
GCTCTGTA	-0.00944
AGTAAAAA	0.0466
